PubChem BioAssay AID1460 (National Center for Advancing Translational Sciences (NCATS), 2008)
Hit rate of the full screen: of about 270,000 compounds, about 5,800 (2.1%) were called active. This list was built around the results that the source calls inconclusive (neither active nor inactive); the mix of calls is not that of the screen. Calls follow the shape of the dose curve; as a rule, active = well fitted inhibition curve with a large enough effect; inconclusive = small, poorly fitted or top-dose-only effect; inactive = flat fitted curve, though single readings scatter. A potency beside an inconclusive call is a rough fit, not a confirmed value. The source holds several records for some structures; these can differ, active in one and inactive in another.
% is scaled to controls: 0 for no effect and ±100 for the full control effect; potency is read from the fitted curve at half-maximal effect; tags tell the direction and shape of the fitted curve.
Also: nearly all actives have a fitted effect of over 55% in size.

These molecules were tested against Microtubule-associated protein tau (Homo sapiens) (UniProt P10636) (assay: qHTS for Inhibitors of Tau Fibril Formation, Thioflavin T Binding). Settings: recombinant tau K18 P301L (four-repeat tau fragment), heparin-induced fibrillization, ThT fluorescence; series mostly up to 57.4 µM; activity, negative = inhibition: at the top concentration.
UniProt P10636, sequence (P10636 whole entry, looked up, the tested form may be a part): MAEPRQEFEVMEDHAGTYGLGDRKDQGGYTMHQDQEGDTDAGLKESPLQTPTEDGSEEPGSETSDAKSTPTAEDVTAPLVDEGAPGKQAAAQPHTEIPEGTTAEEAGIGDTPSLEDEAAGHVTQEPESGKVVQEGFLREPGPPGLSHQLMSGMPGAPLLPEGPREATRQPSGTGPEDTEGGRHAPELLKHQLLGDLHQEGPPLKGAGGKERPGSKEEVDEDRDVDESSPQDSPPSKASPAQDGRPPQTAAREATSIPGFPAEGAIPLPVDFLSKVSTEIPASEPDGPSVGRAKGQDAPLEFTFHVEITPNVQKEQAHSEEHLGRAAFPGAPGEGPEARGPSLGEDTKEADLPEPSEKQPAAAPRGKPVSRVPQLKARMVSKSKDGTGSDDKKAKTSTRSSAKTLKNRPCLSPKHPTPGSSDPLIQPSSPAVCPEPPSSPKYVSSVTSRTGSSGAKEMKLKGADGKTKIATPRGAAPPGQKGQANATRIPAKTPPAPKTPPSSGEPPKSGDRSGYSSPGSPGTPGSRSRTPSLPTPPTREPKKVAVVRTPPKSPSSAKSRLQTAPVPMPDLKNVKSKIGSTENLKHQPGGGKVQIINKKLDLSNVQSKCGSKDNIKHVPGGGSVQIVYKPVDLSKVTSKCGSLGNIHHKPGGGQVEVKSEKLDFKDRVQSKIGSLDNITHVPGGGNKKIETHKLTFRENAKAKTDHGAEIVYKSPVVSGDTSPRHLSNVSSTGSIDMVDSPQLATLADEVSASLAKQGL
Summary of the method: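 K18 P301L tau (15 uM + 0.24 uM Alexa 594-tagged), heparin 20 uM, NaOAc pH 7, 6 h 37 C; ThT 30 uM, 1 h RT, ex 450/em 510 nm.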
With `O=[N+]([O-])c1cccc(-c2nc3ccccc3s/c2=N/O)c1` the Potency was inconclusive: 17.8 µM [inhibitor, partial curve, poor fit]. With `CCOc1ccccc1Nc1nc(-c2sc(NC(=O)c3ccccc3)nc2C)cs1` the Potency was inconclusive: 4.47 µM [inhibitor, full curve]. In the case of `N#CC(C#N)=C1C=CC=CN1/C(=C\c1ccco1)C(=O)c1ccc(Cl)cc1`, the Potency is reported as active: 22.4 µM. In the case of `CC(=O)Nc1ccc(OCC(O)CN2CCN(c3cccc(Cl)c3)CC2)cc1` (stereo not drawn), the Potency is reported as inconclusive: 8.91 µM [inhibitor, partial curve]. `Cc1ccc(N2CCN(S(=O)(=O)c3nnc(NC(=O)c4cccc(F)c4)s3)CC2)cc1` was tested, and the Potency was inconclusive: 2.82 µM [inhibitor, full curve]. `Cc1cc(=O)[nH]c(N/N=C/c2ccc(Br)s2)n1` was tested, and the Potency was inconclusive: 10 µM [inhibitor, partial curve]. For `COc1ccc(-c2nc(-c3ccccc3)c(-c3cccs3)[nH]2)cc1OC`, the Potency was inconclusive: 14.1 µM [inhibitor, partial curve]. `N#CCCN1CCN(C(=S)c2ccc(-c3ccc(Cl)c(Cl)c3)o2)CC1` was tested, and the Potency was inconclusive: 14.1 µM [inhibitor, partial curve]. For `N#Cc1nc(-c2cccs2)oc1N1CCN(Cc2ccccc2)CC1`, the Potency was inconclusive: 35.5 µM [inhibitor, partial curve]. `Nc1c(-c2cccs2)cnn1-c1nc(-c2ccc(Cl)cc2Cl)cs1` was tested, and the Potency was inconclusive: 8.91 µM [inhibitor, full curve, poor fit]. In the case of `CCc1ccc(NC(=O)C2CCN(c3ccc(Sc4ccc(C)cc4)nn3)CC2)cc1`, the “activity, negative = inhibition” value is reported as inactive: 1.07%. With `Cc1ccc(-c2cc(C(=O)Nc3cc(C)ccc3C)[nH]n2)c(O)c1` the “activity, negative = inhibition” value was inactive: -4.83%. With `COc1cc(/C=C/C(=O)NC(C)(C)C)ccc1OCc1ccccc1` the “activity, negative = inhibition” value was inactive: -10.9%. For `CC1=NN(C(N)=S)C(=O)C1N=Nc1ccc(C)cc1C` (stereo not drawn), the Potency was active: 3.16 µM. `CCOc1ccc2nc(N/C(N)=N/C(=S)Nc3cccc(C)c3)nc(C)c2c1` was tested, and the Potency was inconclusive: 1.58 µM [inhibitor, full curve, poor fit]. `CCc1nc2c(sc3nc4c(cc32)COC(C)(C)C4)c(=O)n1Cc1ccccc1` was tested, and the “activity, negative = inhibition” value was inactive: 1.65%. With `CN(C(=O)CSc1nc2ccc(NC(=O)c3ccco3)cc2s1)c1ccccc1` the “activity, negative = inhibition” value was inactive: 6.97%. `COCc1cc(C)nc(OCC(=O)N/N=C\c2cc(C)n(-c3cccc(C(F)(F)F)c3)c2C)c1C#N` was tested, and the Potency was inconclusive: 12.6 µM [inhibitor, partial curve]. In the case of `Cc1cnn(-c2nc(-c3ccccc3)cc(-c3ccccc3)n2)c1`, the Potency is reported as inconclusive: 8.91 µM [inhibitor, partial curve, poor fit]. For `COc1ccccc1N1CCN(Cc2ccco2)CC1`, the Potency was inconclusive: 31.6 µM [inhibitor, partial curve]. `CC(=O)c1ccc(OCC(=O)NCc2ccc(F)cc2)cc1` was tested, and the “activity, negative = inhibition” value was inactive: -4.38%. In the case of `COc1ccc(/C=C/C(=O)c2ccccn2)cc1`, the Potency is reported as active: 20 µM. For `CC1CCC2C(C1)Nc1c(C(=O)O)cccc1C2(C)C` (stereo not drawn), the Potency was inconclusive: 15.8 µM [inhibitor, partial curve]. With `COc1ccc(-c2cc(C(F)(F)F)nc(SCC(=O)NCc3ccco3)n2)cc1OC` the “activity, negative = inhibition” value was inactive: 9.65%. With `COc1cc(/C=N/O)cc(Br)c1OCc1ccc(Cl)cc1` the Potency was inconclusive: 15.8 µM [inhibitor, partial curve]. `Cc1ccccc1Nc1nc(CSc2nnnn2-c2ccccc2)cs1` was tested, and the Potency was inconclusive: 39.8 µM [inhibitor, single point]. `CN(C)c1oc(-c2ccc(OCc3ccc(Cl)cc3)cc2)nc1C#N` was tested, and the Potency was inconclusive: 2 µM [inhibitor, full curve]. In the case of `O=C1CC(c2ccccc2)CC(=O)C1CS(=O)(=O)c1ccccc1` (stereo not drawn), the Potency is reported as inconclusive: 3.55 µM [inhibitor, full curve]. `O=S(=O)(c1ccc(Br)cc1)c1cnc2ccccc2n1` was tested, and the Potency was inconclusive: 31.6 µM [inhibitor, partial curve]. In the case of `NC(=O)C(=O)NCCCN1CCOCC1`, the “activity, negative = inhibition” value is reported as inactive: -11.7%. For `Cc1ccc2nc3sc(C(=O)Nc4ccc(F)cc4)cc3cc2c1`, the Potency was inconclusive: 0.891 µM [inhibitor, full curve]. For `O=C(NCc1cccs1)C1CCN(S(=O)(=O)c2ccccc2F)CC1`, the “activity, negative = inhibition” value was inactive: 0.0454%. In the case of `N#C/C(=C\C=C\c1ccccc1)c1nc(-c2ccc3c(c2)OCO3)cs1`, the Potency is reported as inconclusive: 1.58 µM [inhibitor, full curve]. For `C[N+](C)(C)CCN1C(=O)CSC1=O`, the Potency was inconclusive: 44.7 µM [inhibitor, single point]. In the case of `Cc1cc2nc3c(=O)n(Cc4ccccc4)c(=O)[nH]c3nc2cc1N`, the Potency is reported as inconclusive: 25.1 µM [inhibitor, partial curve]. In the case of `COc1ccc(-c2nc3n(c2C)CCC3)cc1`, the “activity, negative = inhibition” value is reported as inactive: -0.541%. In the case of `CC(C)NC(=O)CSc1nnc(-c2ccncc2)n1-c1ccccc1`, the Potency is reported as inconclusive: 10 µM [inhibitor, full curve, poor fit]. `CCCC1CC(C)(c2csc(Nc3ccc(OCC)cc3)n2)OC1=O` (stereo not drawn) was tested, and the Potency was inconclusive: 17.8 µM [inhibitor, partial curve]. `CCOC(=O)c1cc(-c2cc3ccccc3o2)n[nH]1` was tested, and the Potency was inconclusive: 25.1 µM [inhibitor, partial curve]. `CCC(Oc1ccccc1)C(=O)Nc1nnc(S(=O)(=O)N2CCCC2)s1` (stereo not drawn) was tested, and the Potency was inconclusive: 5.01 µM [inhibitor, full curve]. For `CC1=C(\C=C/C(C)=C/C=C\C(C)=C\C(=O)O)C(C)(C)CCC1`, the Potency was active: 31.6 µM. With `CCOc1ccc(C(=O)N/N=C/c2cc([N+](=O)[O-])cs2)cc1` the Potency was inconclusive: 7.08 µM [inhibitor, partial curve]. In the case of `COC(=O)[C@@]1(Cc2ccc(F)cc2)[C@H]2c3cc(C(=O)N(C)C)n(CCc4ccc(O)c(O)c4)c3C[C@H]2CN1C(=O)c1ccccc1`, the Potency is reported as inconclusive: 39.8 µM [inhibitor, single point]. `Cc1ccc2c(c1)C(c1ccncc1)=NNC(c1ccc(C(C)C)cc1)=N2` was tested, and the Potency was inconclusive: 2.24 µM [inhibitor, partial curve]. In the case of `Oc1ccccc1Nc1nc(NCc2ccccc2)c2ccccc2n1`, the “activity, negative = inhibition” value is reported as inactive: -18.8%. In the case of `CC(C)c1ccc(CC(C)C2C3=C(CCCC3=O)OC3=C2C(=O)CCC3)cc1` (stereo not drawn), the Potency is reported as inconclusive: 31.6 µM [inhibitor, single point]. For `C/C(=N\NC(=O)CSc1nc(C)[nH]c1[N+](=O)[O-])c1ccc(F)cc1`, the Potency was inconclusive: 17.8 µM [inhibitor, partial curve]. For `Cc1cc(N2CCCCC2)n2ncc(-c3ccc(Cl)cc3)c2n1`, the Potency was inconclusive: 15.8 µM [inhibitor, single point]. With `Cc1cc([N+](=O)[O-])cc(/C=N\NC(=O)C2COc3ccccc3O2)c1O` (stereo not drawn) the Potency was active: 12.6 µM. `Cc1ccc(NC(=S)NC(=O)c2ccccc2)cc1NC(=S)NC(=O)c1ccccc1` was tested, and the Potency was inconclusive: 2.24 µM [inhibitor, partial curve]. In the case of `CCCCN(C)c1nc(-c2ccco2)c2c(c1C#N)CC(C)(C)OC2`, the Potency is reported as inconclusive: 25.1 µM [inhibitor, single point]. With `CC(C)c1ccc(C(=O)Nc2ccc(N3CCOCC3)cc2)cc1` the “activity, negative = inhibition” value was inactive: -3%. In the case of `O=C(Cn1nc(-c2ccccc2)ccc1=O)Nc1ccc(N2CCN(C(=O)c3cccs3)CC2)cc1`, the Potency is reported as inconclusive: 17.8 µM [inhibitor, partial curve, poor fit]. `O=c1oc2ccccc2c(Nc2ccc3ncccc3c2)c1[N+](=O)[O-]` was tested, and the Potency was inconclusive: 25.1 µM [inhibitor, partial curve]. In the case of `CCOC(=O)c1sc(NC(=O)c2ccccc2C(=O)O)c(C(=O)OCC)c1C`, the Potency is reported as inconclusive: 12.6 µM [inhibitor, partial curve, poor fit]. With `COc1cc2cc3c(N)c(C(=O)NCc4ccco4)sc3nc2cc1OC` the Potency was active: 14.1 µM. In the case of `[O-]/C(=C(\C(=S)NCCN1CCOCC1)[n+]1ccccc1)c1ccc(Cl)s1`, the “activity, negative = inhibition” value is reported as inactive: 4.02%. `CC(=O)OCc1ccccc1Sc1ccccc1C(=O)NCc1ccccc1` was tested, and the Potency was inconclusive: 25.1 µM [inhibitor, single point]. `O=C(Oc1c(CN2CCOCC2)cc(Cl)c2cccnc12)c1ccccc1Cl` was tested, and the Potency was inconclusive: 15.8 µM [inhibitor, partial curve]. With `CC(=Nc1ccc(O)cc1)c1sc2ccccc2c1O` the Potency was active: 4.47 µM. In the case of `O=C(Nc1ccc2[nH]ccc2c1)c1cccs1`, the Potency is reported as inconclusive: 10 µM [inhibitor, partial curve]. With `COc1ccc(C(=O)COC(=O)c2ccc(N(C)C)cc2)cc1` the Potency was inconclusive: 6.31 µM [inhibitor, partial curve]. `O=C(COc1ccc2ccccc2c1)NNC(=O)Cc1ccccc1` was tested, and the “activity, negative = inhibition” value was inactive: -0.89%. In the case of `CCOC(=O)c1cnc2c(OC)cccc2c1N1CCN(c2ccccc2F)CC1`, the Potency is reported as inconclusive: 25.1 µM [inhibitor, partial curve]. With `CCOC(=O)C1=C(O)/C(=C/c2cc(OC)c(O)c(OC)c2)SC1=Nc1ccc(OC)cc1` the Potency was inconclusive: 3.55 µM [inhibitor, full curve]. For `Cn1ccnc1SCC(=O)Nc1ccc2nc(SCC(=O)NC3CC3)sc2c1`, the Potency was inconclusive: 39.8 µM [inhibitor, single point]. In the case of `COc1ccc(CCNC(=O)CCCCn2c(=O)c3ccccc3n(Cc3cccc(C)c3)c2=O)cc1OC`, the Potency is reported as inconclusive: 28.2 µM [inhibitor, single point]. For `Cc1nc2ncnn2c(N2CCN(c3cccc(C(F)(F)F)c3)CC2)c1C`, the Potency was inconclusive: 20 µM [inhibitor, partial curve].
